According to PubChem BioAssay AID1461 (National Center for Advancing Translational Sciences (NCATS), 2008):
Among all 220,000 compounds or so, about 2,300 (1%) were called active. The inconclusive results got no clear call from the source; some entries with a clear call stand among them for comparison. The call rests on the fitted dose curve; in most records, active means well fitted inhibition curve with a large enough effect; inconclusive means small, poorly fitted or top-dose-only effect, or effect the other way; inactive means no such curve, though single readings can be large or run the other way. Potencies of inconclusive entries are left out as doubtful fits.

Molecular target: Neuropeptide S receptor (Homo sapiens) (UniProt Q6W5P4)
Chain of UniProt Q6W5P4 (Q6W5P4 whole entry, looked up): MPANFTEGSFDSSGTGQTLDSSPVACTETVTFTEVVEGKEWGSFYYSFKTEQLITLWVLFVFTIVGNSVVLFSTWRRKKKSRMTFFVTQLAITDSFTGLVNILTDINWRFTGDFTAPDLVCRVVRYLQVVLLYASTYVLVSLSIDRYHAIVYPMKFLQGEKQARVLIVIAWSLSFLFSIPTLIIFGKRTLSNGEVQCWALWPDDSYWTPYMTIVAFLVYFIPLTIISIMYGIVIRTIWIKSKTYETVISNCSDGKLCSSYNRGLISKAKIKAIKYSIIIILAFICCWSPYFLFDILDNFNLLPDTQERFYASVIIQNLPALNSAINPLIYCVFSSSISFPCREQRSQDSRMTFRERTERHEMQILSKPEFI
Assay: qHTS Assay for Antagonists of the Neuropeptide S Receptor: cAMP Signal Transduction; further: nearly all actives have a fitted effect of over 50% in size
Conditions: CHO-NPSR cells, cAMP TR-FRET, antagonist mode; activity change, negative = inhibition: at 38.3 µM (top of the series) unless noted
On the % scale 0 is the no-effect control and ±100 the full control effect; potency means the concentration at half of the fitted maximal effect; tags describe the fitted curve by direction and shape.

Compound	Potency	activity change, negative = inhibition
CC1=NOC(=O)/C1=C\c1ccc(-c2cccc(Cl)c2)o1	inconclusive [inhibitor, partial curve]	
O=C(Nc1cc(S(=O)(=O)Nc2ccc(Cl)cc2)ccc1N1CCCCC1)c1ccc(F)cc1	inconclusive [inhibitor, single point]	
CC(C)n1cc(-c2ccc(Cl)cc2)cc(C#N)c1=O		inactive: -15.1% [at 46.1 µM]
c1ccc(-c2nnc(CSc3nnc(-c4ccncc4)n3Cc3ccco3)o2)cc1		inactive: 6.6% [at 46.1 µM]
O=c1c2c(nc3cc(-c4ccc(F)cc4)[nH]n13)CCCC2		inactive: -18.2% [at 46.1 µM]
CC(=O)c1cccc(NC(=O)c2ccc(N(Cc3ccc(C)cc3)S(C)(=O)=O)cc2)c1	inconclusive [inhibitor, single point]	
NC(=S)N/N=C\c1ccc(-c2cccc(Cl)c2Cl)o1	inconclusive [inhibitor, single point]	
COc1cc(/C=C2\SC(=S)N(Nc3ccccc3)C2=O)cc(OC)c1OC	inconclusive [inhibitor, partial curve]	
CC(=O)NC1CC2CCCC(C1)N2CC(=O)N1CCCc2ccccc21 (stereo not drawn)	inconclusive [activator, single point]	
COc1ccc(C(=O)NCc2ccccc2)cc1Br		inactive: 3.06%
O=[N+]([O-])c1ccc(Sc2cccc[n+]2[O-])c2nonc12	inconclusive [activator, full curve]	
O=S(Cc1ccc(Br)cc1)Cc1nnc(SCc2ccc(Cl)cc2)n1-c1ccccc1 (stereo not drawn)	inconclusive [inhibitor, single point]	
CC(C)C[C@H](NC(=O)c1nc[nH]c1C(=O)NC(c1ccccc1)c1ccccc1)C(=O)OC(C)(C)C	inconclusive [activator, partial curve]	
CCOc1ccccc1NC1=CC(=O)CC(c2ccccc2)C1 (stereo not drawn)	active: 1.26 µM	
Oc1ccccc1/C=N/NC(=S)NC1CC2CC1C1C=CCC21 (stereo not drawn)	inconclusive [activator, single point]	
CCC(C)(C)c1ccc(OCCCC[n+]2cccc(C)c2)c(C(C)(C)CC)c1	inconclusive [inhibitor, single point]	
COc1cccc(/C=C(\CC(=O)O)c2nc3ccccc3s2)c1		inactive: -24.5%
Cc1ccccc1Nc1nc(N)c2ccccc2n1		inactive: -5.56%
COCCOC(=O)c1c(N)n(CCCN2CCOCC2)c2nc3ccccc3nc12	inconclusive [inhibitor, single point]	
CCCn1nnc(NC(=S)NC(=O)c2ccc(-c3ccc(Br)cc3)o2)n1	inconclusive [activator, full curve]	
CN(C)c1ccc(NC(=O)c2cn(-c3ccccc3)nc2-c2cccs2)cc1		inactive: -19.5% [at 46.1 µM]
CCOC(=O)c1c(C)[nH]c(C(=O)OCC(=O)N2c3ccccc3CC2C)c1C (stereo not drawn)	inconclusive [inhibitor, partial curve]	
CCCCNC(=O)CCC(=O)Nc1ccc2nc(N3CCOCC3)cc(C)c2c1		inactive: -7.97% [at 46.1 µM]
CC1CCN(c2oc(-c3ccccc3Cl)nc2C#N)CC1	inconclusive [inhibitor, partial curve]	
Cc1ccc(C2=NN(C(=O)c3cccs3)C(c3ccccc3O)C2)cc1 (stereo not drawn)	inconclusive [inhibitor, single point]	

Compound	Potency	activity change, negative = inhibition
O=C(C1=C[C@H](c2ccccc2)C[C@H](OCc2ccc(CO)cc2)O1)N1CCN(Cc2ccc3c(c2)OCO3)CC1	inconclusive [activator, partial curve]	
CCOC(=O)c1c(CSc2ccccc2)n(C)c2ccc(O)c(CN3CCOCC3)c12	active: 7.94 µM	
N#CC1=C(N)Oc2n[nH]c(-c3cccs3)c2C1C1C=CCCC1 (stereo not drawn)		inactive: -19.8% [at 46.1 µM]
COc1cc(/C=C2\SC(=S)N(c3cccnc3)C2=O)ccc1O		inactive: -2.88%
Cc1sc2nc(SCC(=O)NCc3cccs3)[nH]c(=O)c2c1C	inconclusive [inhibitor, single point]	
Cc1cc(Br)ccc1NC(=O)CNC(=O)Cn1ncc(Cl)c(Cl)c1=O	inconclusive [activator, partial curve]	
Cc1ccc(OCC(=O)O/N=C(\N)Cc2ccc(Cl)cc2)cc1	inconclusive [inhibitor, single point]	
Cc1ccccc1Oc1cc(-n2ncc(Cl)c(Cl)c2=O)ncn1	active: 2.51 µM	
Cc1n[nH]c(=O)nc1Nc1ccc(O)cc1		inactive: -11.9% [at 46.1 µM]
c1ccc(COn2c(-c3ccccc3)nc3c2CCc2nonc2-3)cc1	inconclusive [inhibitor, single point]	
COC(=O)CCN(C1CCCCC1)S(=O)(=O)c1ccc(S(=O)(=O)NC2CCCCC2)cc1	inconclusive [inhibitor, single point]	
Cc1cc(C)cc(NS(=O)(=O)c2ccc3oc(=O)ccc3c2)c1		inactive: -17% [at 46.1 µM]
O=C(Oc1c(CN2CCOCC2)cc(Cl)c2cccnc12)c1ccc(F)cc1	active: 5.01 µM	
Cc1ccc2cc(C)c3nnc(SCC(=O)N4CCCc5ccccc54)n3c2c1C	inconclusive [inhibitor, full curve, poor fit]	
CC(=NC1CC1)c1c(-c2ccccc2)[nH]n(-c2nc3ccccc3s2)c1=O	inconclusive [inhibitor, partial curve]	
Cc1nn(-c2nc3ccccc3[nH]2)c(N)c1-c1ccc(Cl)cc1	inconclusive [inhibitor, single point]	
O=c1[nH]c2cc3c(cc2cc1C(c1nnnn1Cc1ccccc1)N1CCN2CCCC2C1)OCCO3 (stereo not drawn)		inactive: -13.6% [at 46.1 µM]
Cc1ccc(C(=O)c2cc([N+](=O)[O-])ccc2N2CCCCC2)cc1C		inactive: -43.4%
O=C1CN(C(=O)CSc2nnc(Nc3ccccc3)s2)c2ccccc2N1		inactive: 4.97%
Nc1ccccc1SC1CC(=O)N(Cc2ccccc2)C1=O (stereo not drawn)		inactive: 10.7%
Nc1ccc(N)c(C(=O)O)c1		inactive: -18%
COC(=O)CNC(=O)COC(=O)c1ccc(Cl)nc1		inactive: 15.2%
CC(Nc1cc(N2CCCC2)ccc1[N+](=O)[O-])c1ccccc1 (stereo not drawn)		inactive: -22.4% [at 46.1 µM]
COc1ccc(Cn2nnnc2C(c2ccccc2Cl)N2CCN(C3CCCC3)CC2)cc1 (stereo not drawn)	inconclusive [inhibitor, partial curve]	
O=C(c1ccco1)N(Cc1ccc([N+](=O)[O-])cc1)c1ccc(Br)cc1	inconclusive [inhibitor, partial curve]	

Compound	Potency	activity change, negative = inhibition
C/C(NC1CCCC1)=C(/C#N)C(N)=O		inactive: -16.3% [at 46.1 µM]
CCOC(=O)c1sc(NC(=O)COC(=O)Cn2cnc3ccccc32)c(C(=O)OCC)c1C		inactive: -28.4%
COc1ccc(CC2(CO)CCN(S(=O)(=O)c3sccc3C)CC2)cc1		inactive: 0.613%
COc1ccc(C2=NN(C(=O)CSc3cn(C)c4ccccc34)C(c3ccc(OC)cc3)C2)cc1 (stereo not drawn)	inconclusive [inhibitor, partial curve]	
CCCCCC(=O)Nc1nc(C)c(-c2csc(Nc3cc(OC)ccc3OC)n2)s1	inconclusive [inhibitor, partial curve, poor fit]	
CN1CCc2c(sc3c2C(=O)NC(c2ccccn2)N3)C1 (stereo not drawn)		inactive: -5.57% [at 46.1 µM]
O=C(O)/C=C/c1cn(-c2ccccc2)nc1-c1cccc([N+](=O)[O-])c1	inconclusive [activator, partial curve]	
CCCCCn1c(NC(=O)c2ccco2)c(S(=O)(=O)c2ccc(C)cc2)c2nc3ccccc3nc21	active: 12.6 µM	
Cc1ccc(S(=O)(=O)N2CCN(C(C)C(=O)N3CCCc4ccccc43)CC2)cc1 (stereo not drawn)	inconclusive [inhibitor, partial curve]	
CC1=Nc2ccccc2/C1=C/c1sc(=N)n(-c2nccs2)c1O	inconclusive [inhibitor, partial curve, poor fit]	
Cc1ccc(C(=O)C(C(=O)/C=C/c2ccccc2)=C2SCCCS2)cc1	inconclusive [inhibitor, partial curve]	
O=C(CN1C(=O)c2ccccc2C1=O)Nc1cccc2cccnc12	inconclusive [inhibitor, partial curve, poor fit]	
Cc1ccc(OCC(=O)NNC(=O)C(=O)N2CCCC2)c(C)c1		inactive: 7.51%
CCOC(=O)CSC1=Nc2ccccc2C2=NC(CC(=O)NCc3ccc4c(c3)OCO4)C(=O)N12 (stereo not drawn)		inactive: -15.6% [at 46.1 µM]
Cc1ccc(-n2ncc(Br)c(Br)c2=O)cc1	inconclusive [inhibitor, single point]	
Cc1cc(C)c2c(CN3CCN(Cc4ccc5c(c4)OCO5)CC3)cc(=O)oc2c1	inconclusive [inhibitor, single point]	
CCn1nc(C(C)C(=O)O)c2ccccc2c1=O (stereo not drawn)		inactive: -10.9%
Cc1ccc(NC(=O)c2cc(NC(=O)c3ccco3)ccc2N2CCCCC2)cc1	inconclusive [inhibitor, partial curve]	
COc1ccc(NC(=S)Nc2ccc(C)c(S(=O)(=O)N3CCCCC3)c2)cc1		inactive: 1.52%
O=C(c1ccc(Cn2c(=O)[nH]c3ccccc3c2=O)cc1)N1CCN(c2ccc(F)cc2)CC1	inconclusive [inhibitor, partial curve, poor fit]	
CN(C)c1ccc(/C=N\NC(=O)c2ccc(Cn3cc(Cl)cn3)cc2)cc1		inactive: -29.7%
Cc1c(/C(O)=C2/C(=O)C(=O)N(CCN3CCOCC3)C2c2ccccn2)cnn1-c1ccccc1 (stereo not drawn)		inactive: -5.57%
CCOC(=O)c1ccc(NC(=O)c2nc[nH]c2C(=O)NCCCCCNC(=O)OC(C)(C)C)cc1	inconclusive [inhibitor, single point]	
